About 50,000 (12%) of roughly 420,000 compounds were called active. The shares of active, inactive and inconclusive entries below differ from those in the screen. The call rests on the fitted dose curve; in most records, active means well fitted inhibition curve with a large enough effect; inconclusive means small, poorly fitted or top-dose-only effect; inactive means flat fitted curve, though single readings scatter. Potencies of inconclusive entries are left out as doubtful fits.
Assay: qHTS for Inhibitors of human tyrosyl-DNA phosphodiesterase 1 (TDP1): qHTS in cells in presence of CPT; further: nearly all actives have a fitted effect of over 55% in size
Conditions: chicken DT40 Tdp1-/-;hTDP1 cells + 20 nM CPT, ATP luminescence, 48 h; activity change, negative = growth inhibition: at 46.2 µM (top of the series)
Outline: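 Cell growth measured by CellTiter-Glo luminescence after a minimum 48 h, 37 C compound exposure with 20 nM CPT in Tdp1-knockout DT40 cells stably expressing hTDP1, seeded 400/well; qHTS titration format.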
On the % scale 0 is the no-effect control and ±100 the full control effect; potency means the concentration at half of the fitted maximal effect; tags describe the fitted curve by direction and shape.

Structure (SMILES) | activity change, negative = growth inhibition | Potency
COc1ccc(NS(=O)(=O)c2ccc(OC)c(NC(=O)CCC3CCCCC3)c2)cc1 | inactive: -24.6% | –
CC1(c2ccc(Cl)cc2)NC(=O)N(CC(=O)NCc2cccs2)C1=O (stereo not drawn) | inactive: 2.28% | –
CS(=O)(=O)N(CC(=O)N1CCN(Cc2ccccc2)CC1)c1ccccc1Br | – | inconclusive [inhibitor, single point]
O=S(=O)(c1cccc2c(S(=O)(=O)N3CCCC3)cccc12)N1CCCC1 | – | inconclusive [inhibitor, single point]
COc1ccc(C(C(=O)NC2CCCC2)N(C(=O)c2ccoc2C)c2cc(C)cc(C)c2)cc1 (stereo not drawn) | – | active: 25.9 µM
Cn1cc(CCC(=O)N2CCCC(C(=O)c3ccc(C(C)(C)C)cc3)C2)cn1 (stereo not drawn) | – | active: 25.9 µM
ClCc1nnc(-c2ccccc2)o1 | – | inconclusive [inhibitor, single point]
CCc1nnc(N2C(=N)SCC2=O)s1 | inactive: 7.9% | –
O=C(NCc1cccc(F)c1)c1cccc2c1C(=O)c1ccc(Cl)cc1S2(=O)=O | – | inconclusive [inhibitor, single point]
O=C(CSc1ncnc2c1oc1ccccc12)NC1CCCCC1 | inconclusive: -30.7% [inhibitor] | –
COc1ccc(/C=C/C(=O)c2ccc[nH]2)c(OC)c1OC | inactive: -0.374% | –
C=C(C)Cn1c(N(CCO)Cc2ccccc2)nc2c1c(=O)[nH]c(=O)n2C | inactive: -27.3% | –
Cn1cc(CNCCCn2ncc3ccccc32)c(-c2ccccc2F)n1 | – | inconclusive [inhibitor, partial curve]
CCOc1cccc2cc(C(=O)NCc3ccc(C)cc3)c(=N)oc12 | – | inconclusive [inhibitor, single point]
CCCCn1c(SCc2cccnc2)nc2c1c(=O)n(C)c(=O)n2C | – | active: 13 µM
CN(c1ccccc1)S(=O)(=O)c1ccc(C(=O)NCC(c2ccco2)N2CCCCC2)cc1 (stereo not drawn) | – | inconclusive [inhibitor, single point]
CCOC(=O)Cc1[nH]nc2c1C(C1C=CCCC1)C(C#N)=C(N)O2 (stereo not drawn) | – | inconclusive [inhibitor, single point]
CN=C1C=CC(=C(c2ccc(N(C)C)cc2)c2ccc(N(C)C)cc2)C=C1 | – | active: 0.211 µM
O=C(Nc1ccc(S(=O)(=O)N2CCC(c3nc4ccccc4s3)CC2)cc1)c1ccccc1F | – | inconclusive [inhibitor, partial curve]
Cc1ccc(/C=N/N=C/c2ccc(C)cc2)cc1 | – | inconclusive [inhibitor, single point]
O=C(Nc1c2c(nn1-c1cccc(Cl)c1)CS(=O)(=O)C2)c1ccco1 | inactive: 3.75% | –
Cc1cccc(C(=O)Nc2ccc(N3CCC(CCN4CCOCC4)CC3)c(C(=O)O)c2)c1 | inactive: 0.532% | –
NC(=O)c1ccc(NC(=O)CNC(=O)c2sc3ccccc3c2Cl)cc1 | inactive: -22.3% | –
COc1ccc(-c2nnc(SCC(=O)NC(C)c3ccccc3)o2)cc1 (stereo not drawn) | – | inconclusive [inhibitor, partial curve]
COCCCN(Cc1ccco1)C(=O)CSc1nc2ncccc2[nH]1 | inactive: 2.95% | –

Structure (SMILES) | activity change, negative = growth inhibition | Potency
O=C(O)CCc1ccc(S(=O)(=O)Nc2ccccc2N2CCCCC2)cc1 | – | inconclusive [inhibitor, single point]
CCNS(=O)(=O)c1ccc(CCC(=O)NC2CCCC2)cc1 | inactive: -2.18% | –
COc1ccc(NC(=O)Nc2ccc3c(c2)C(=O)N([C@H](C)CO)C[C@H](C)[C@@H](CN(C)Cc2ccc(Cl)c(Cl)c2)OCCCC[C@@H](C)O3)cc1 | inactive: -16.9% | –
COCCCNC(=O)c1c(N)n(/N=C/c2cccnc2)c2nc3ccccc3nc12 | – | inconclusive [inhibitor, partial curve]
Cc1cccc(C(=O)NCC(=O)Nc2ccncc2)c1 | inactive: -28% | –
N=c1n(CCCOc2ccc(F)cc2)c2ccccc2n1CC(N)=O | – | inconclusive [inhibitor, single point]
CCOc1ccccc1NC(=O)COC(=O)c1c[nH]c2ccccc12 | – | inconclusive [inhibitor, partial curve, poor fit]
Cc1ccc(O)c(C(=O)CC(=O)c2ccccc2Cl)c1 | – | active: 2.31 µM
O=C(C1CCC(Cn2c(=O)[nH]c3ccccc3c2=O)CC1)N1CCN(c2ccccc2)CC1 (stereo not drawn) | inactive: -13.2% | –
COc1ccccc1CNc1ncnc2ccc(-c3ccc(N(C)C)cc3)cc12 | – | active: 16.4 µM
COCCNc1nc2cc(-c3cccc(Cl)c3)sc2c(=O)n1C | – | inconclusive [inhibitor, single point]
Cc1ccccc1N1CCN(Cc2ccc(Br)o2)CC1 | – | inconclusive [inhibitor, partial curve]
Cc1cc(N2CCOCC2)ccc1/C=C1\NC(=O)N(Cc2ccccc2F)C1=O | – | inconclusive [inhibitor, single point]
CC1CCc2nc(NC(=O)CCSc3ccccc3)sc2C1 (stereo not drawn) | inactive: -6.88% | –
COc1cc(OC)nc(Oc2ccccc2C(=O)Oc2cccc(C)c2)n1 | – | inconclusive [inhibitor, single point]
CCOC(=O)C1(C(=O)OCC)NC(=O)CC1CC(C)C (stereo not drawn) | inactive: 0.503% | –
CCOC(=O)c1cn[nH]c1NC(=S)Nc1ccc(Cl)cc1 | inactive: -12.3% | –
CCN(C(=O)NCc1noc2ccccc12)c1cc(C)ccc1C | – | inconclusive [inhibitor, single point]
Cc1csc(NC(=O)C(Cc2ccccc2)n2cccc2)n1 (stereo not drawn) | – | active: 29.1 µM
CC(=O)Nc1ccc(S(=O)(=O)N2CCC(C(=O)NCCc3ccc(Cl)cc3)CC2)cc1 | – | inconclusive [inhibitor, single point]
CCOC(=O)c1c(C)[nH]c(C(=O)CSc2nnc(C3CC3)n2N)c1C | – | inconclusive [inhibitor, single point]
CC1S/C(=C(\C#N)C(=O)NCc2ccco2)N(c2ccc(F)cc2)C1=O (stereo not drawn) | inactive: 0.933% | –
CCC(C)c1ccc(NC(=O)c2[nH]c(C)c(C(C)=O)c2C)cc1 (stereo not drawn) | – | inconclusive [inhibitor, single point]
COc1ccc(CCNC(=O)C(NS(=O)(=O)c2cccc3nsnc23)C(C)C)cc1OC (stereo not drawn) | inactive: -12.2% | –
O=C(CCN1C(=O)c2ccccc2S1(=O)=O)N1CCN(c2ccccc2F)CC1 | inactive: 4.22% | –

Structure (SMILES) | activity change, negative = growth inhibition | Potency
O=C(O)c1ccc(S(=O)(=O)N2CCC3(CC2)CC(=O)c2ccccc2O3)cc1 | inactive: 2.15% | –
CCOc1ccc(S(=O)(=O)NCCC(=O)N2CCN(c3ccc(OC)cc3)CC2)cc1 | – | inconclusive [inhibitor, single point]
COc1cc(/C=N/NC(=O)Nc2cccc3nsnc23)cc(OC)c1OC | – | inconclusive [inhibitor, partial curve, poor fit]
Cc1nc(NNC(=O)c2ccc(Cl)cc2Cl)cc(-c2ccccc2)n1 | inactive: -14.9% | –
CC(=O)C1=C(O)C(=CC=Cc2ccccc2)OC1=O | – | inconclusive [inhibitor, single point]
CCCCCOc1ccc(C(=O)N(Cc2ccccc2)C2CCS(=O)(=O)C2)cc1 (stereo not drawn) | – | inconclusive [inhibitor, single point]
O=C(C[C@H]1C/C=C\C[C@H](Cc2ccc(F)cc2)C(=O)O[C@@H](c2ccccc2)CNC1=O)NCCO | – | inconclusive [inhibitor, single point]
CCOC(=O)c1nc(Nc2cccc(C)c2)c2ccccc2n1 | – | active: 23.1 µM
Cc1ccc(-n2c(SCC(=O)NCCN3C(=O)CSC3=O)nnc2-c2cccc(C)c2)cc1 | – | inconclusive [inhibitor, single point]
CCC(=O)NC(=S)NNC(=O)c1ccc(NC(=O)c2ccccc2)cc1 | – | active: 5.8 µM
Cc1c(C(=O)NC(=S)Nc2ccc(NC(=O)c3cccs3)cc2)oc2ccccc12 | – | inconclusive [inhibitor, single point]
Cc1ccc(-c2nn(-c3ccccc3)cc2C(=O)NCCCN2CCOCC2)cc1 | inactive: -5.87% | –
CCOc1ccc(N(CC(=O)Nc2cccc(F)c2)S(=O)(=O)c2c(C)noc2C)cc1 | – | inconclusive [inhibitor, single point]
Cc1c(NC(=O)CSc2ccc3ccccc3n2)c(=O)n(-c2ccccc2)n1C | inactive: 14.4% | –
COC(=O)[C@]12CCCCC=C1N(Cc1ccc3c(c1)OCO3)C(=O)[C@H](CC(=O)NCC13CC4CC(CC(C4)C1)C3)C2 | – | inconclusive [inhibitor, single point]
CCOc1ccc(NC(=O)CN2C(=O)C(c3ccccc3)=NC23CCCCCC3)cc1 | – | inconclusive [inhibitor, single point]
Cc1cc(NC(=O)CN(C)S(=O)(=O)c2ccc3c(c2)CCC(=O)N3)ccc1Br | – | active: 29.1 µM
Cc1cccc(Cn2c(C)c(C)c3cc(C(=O)NCc4ccc(C)o4)ccc32)c1 | – | inconclusive [inhibitor, single point]
Cn1nc(C(F)(F)F)c2cc(C(=O)Nc3ccc(Cl)cc3)sc21 | – | inconclusive [inhibitor, single point]
O=C(O)c1cccc(-c2csc(C(O)c3ccccc3)n2)c1 (stereo not drawn) | inactive: -3.29% | –
Cc1ccccc1NC(=O)CC1c2ccccc2CC(C)(C)N1C (stereo not drawn) | – | inconclusive [inhibitor, single point]
Cc1noc(C)c1COc1cccc(C(=O)Nc2ccc(OCc3ccccc3)cc2)c1 | – | inconclusive [inhibitor, single point]
CCCCC12CN3CC(C)(CN(C1)C3c1c(C)[nH]c(=O)[nH]c1=O)C2=O (stereo not drawn) | inactive: -0.356% | –

— PubChem BioAssay AID686979 (National Center for Advancing Translational Sciences (NCATS), 2013)
